# Over roughly 110,000 compounds, “z-score” has its median near -0.1; the highest 2% begin near 2. Some of the results follow. Activity calls are given as the source filed them.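 The calls were made as follows: active = z-score in the third read window above 3 or below -3; inactive = the rest.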
# Target: Metabotropic glutamate receptor 8 (Rattus norvegicus) (UniProt P70579)
# Test: mGluR8 Gi/Go-coupled signaling modulation – cell-based, rat, thallium flux, HTS, primary screen (AID 488969)
# Conditions: HEK293 rat mGluR8, GIRK (G protein-gated inwardly rectifying potassium channel) thallium flux, FluoZin2; at 10 µM; stronger effect = higher value; submaximal glutamate (EC20) added with thallium
# UniProt P70579, sequence (P70579 whole entry, looked up): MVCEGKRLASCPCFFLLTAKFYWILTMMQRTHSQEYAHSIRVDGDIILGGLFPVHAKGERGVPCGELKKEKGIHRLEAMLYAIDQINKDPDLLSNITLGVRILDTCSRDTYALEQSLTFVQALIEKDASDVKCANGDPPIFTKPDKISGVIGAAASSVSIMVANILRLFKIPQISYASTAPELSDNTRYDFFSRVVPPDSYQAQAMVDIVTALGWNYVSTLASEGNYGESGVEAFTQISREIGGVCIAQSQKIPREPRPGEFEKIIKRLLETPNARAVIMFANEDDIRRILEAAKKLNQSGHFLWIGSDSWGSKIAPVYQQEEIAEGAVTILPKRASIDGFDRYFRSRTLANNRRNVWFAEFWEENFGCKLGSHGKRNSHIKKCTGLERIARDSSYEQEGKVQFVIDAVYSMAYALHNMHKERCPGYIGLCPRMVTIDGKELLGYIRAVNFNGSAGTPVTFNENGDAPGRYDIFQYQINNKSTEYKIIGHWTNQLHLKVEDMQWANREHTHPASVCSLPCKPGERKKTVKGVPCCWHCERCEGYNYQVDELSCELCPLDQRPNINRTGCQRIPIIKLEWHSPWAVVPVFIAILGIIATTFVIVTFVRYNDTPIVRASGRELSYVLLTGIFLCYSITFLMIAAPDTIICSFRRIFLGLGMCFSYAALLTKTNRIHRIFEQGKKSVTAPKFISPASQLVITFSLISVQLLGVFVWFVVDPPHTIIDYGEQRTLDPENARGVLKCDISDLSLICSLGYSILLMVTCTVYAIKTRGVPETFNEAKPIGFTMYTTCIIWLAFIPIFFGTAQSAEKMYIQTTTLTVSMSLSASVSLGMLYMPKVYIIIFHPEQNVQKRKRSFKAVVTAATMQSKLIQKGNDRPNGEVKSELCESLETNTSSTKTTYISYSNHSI
row,SMILES,z-score
1,Cc1cc(C(=O)NCc2cccs2)no1,-0.109
2,CCn1cnc2cc(NS(=O)(=O)c3ccc(C)cc3)ccc21,-0.424
3,Cc1cc(NC(=O)CSc2nc3c([nH]c4ccccc43)c(=O)n2-c2cccc(C(F)(F)F)c2)no1,0.588
4,Cc1cc(C)c2c(CC(=O)N(CCC#N)Cc3cccnc3)coc2c1,-0.0341
5,CCn1cc(C(=O)NCCOC)c(=O)c2ccc(C)nc21,0.601
6,CNc1oc(-c2cccc3ccccc23)nc1C#N,0.758
7,S=c1[nH]nc(COc2ccccc2)n1Cc1ccccc1,0.364
8,COC(=O)c1ccc(CNC(=O)COC(=O)C23CC4CC(CC(C4)C2)C3)cc1,0.179
9,CC(=O)Nc1ccc2c(c1)CCCN2C(=O)c1ccccc1,-0.0583
10,CCOC(=O)CCSc1nc2c(c(C(F)(F)F)c1C#N)CCC2,-0.394
11,O=C(/C=C/c1ccc(Cl)cc1)NC(=S)Nc1ccc(NC(=O)c2ccco2)cc1,-0.669
12,COc1ccc(/C=C/C(=O)Nc2ccc(-c3nnc4n3CCCCC4)cc2)c(OC)c1,-0.328
13,CCc1ccc(S(=O)(=O)N(C(=O)c2ccncc2)c2ccc(OC(=O)c3ccncc3)cc2)cc1,-0.659
14,CCN(CC)CCCn1c(C)cc2c(c1=O)C(c1ccc(OC)c(OC)c1OC)C(C#N)=C(N)O2 (centres undefined),-0.47
15,O=C(CNC(=O)c1ccc(Cl)cc1)OCC(=O)c1ccc2c(c1)OCCO2,-0.0625
16,CN1CCN(Cc2cccc(Oc3ccc(Cl)cc3)c2)CC1,active: 4
17,COc1ccc(-c2cc(C(=O)Nc3c(C)nn(Cc4ccccc4Cl)c3C)no2)cc1OC,-0.0235
18,CCCOC(=O)CSc1nnc(-c2cc(OC)c(OC)c(OC)c2)o1,-0.52
19,COc1ccc(C2Nc3ccccc3C(=O)N2O)cc1CN1CCOCC1 (centres undefined),0.994
20,CCCC1C2C(=O)N(c3ccc(OC)cc3)C(=O)C2ON1c1ccccc1 (centres undefined),-0.375
21,O=C(C(=O)N1CCCc2ccccc21)N1CCCc2ccccc21,0.0396
22,COc1ccc2nc3oc(C(=O)N4CCN(c5cccc(C(F)(F)F)c5)CC4)cc3cc2c1,0.0948
23,C=CCn1c(=O)c2ccccc2n2c(SCC(N)=O)nnc12,-0.0528
24,CCNC(=O)N1CCNC(=O)C1CC(=O)Nc1ccc(C(=O)OCC)cc1 (centres undefined),-0.0401
25,Cc1ccc(CNCC(O)(c2ccc(F)cc2)c2ccc(F)cc2)cc1,0.221
26,CCN(c1ccccc1)c1ncnc2c1cnn2-c1ccccc1,-0.478
27,O=C(NCc1ccc2c(c1)OCO2)c1cccc(S(=O)(=O)N2CCOCC2)c1,0.239
28,COc1ccc(-c2cc(C(F)(F)F)n3ncc(C(=O)NCC4CCCO4)c3n2)cc1OC (centres undefined),-0.475
29,CC12COC3(C(=O)NCCc4ccccc4)CC1CCC32C (centres undefined),-0.0777
